# Measurements published in the supplement of paper PMC8728848.
# This is one part of the list.
# B1: FaeGab (Escherichia coli) (protein)
# chain: WMTGDFNGSVDIGGSITADDYRQKWEWKVGTGLNGFGNVLNDLTNGGTKLTITVTGNKPILLGRTKEAFATPVSGGVDGIPQIAFTDYEGASVKLRNTDGETNKGLAYFVLPMKNAEGTKVGSVKVNASYAGVFGKGGVTSADGELFSLFADGLRAIFYGGLTTTVSGAALTSGSAAAARTELFGSLSRNDILGQIQRVNANITSLVDVAGSYREDMEYTDGTVVSAAYALGIANGQTIEATFNQAVTTSTQWSAPLNVAITYY
# Tests used:
# Assay in all cases: glycan array binding signal (z-score within array); higher = stronger binding
# Details in all cases: glycan notation: IUPAC condensed, linker removed
# [1] = molecular target: GlcNAc(a1-3)Gal(b1-4)GlcNAc
# Summary of the method: (§1)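 Negative Z-scores can be read as non-binding. The Z-score is calculated within each array and then averaged across arrays of one protein sequence at different concentrations or buffers and across linkers. Arrays, 3228 in all, were curated from the Consortium for Functional Glycomics database and kept only where the protein sequence was available.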
# [2] = molecular target: GlcNAc(a1-6)Gal(b1-4)GlcNAc
# Summary of the method: as §1
# [3] = molecular target: GlcNAc(b1-2)Gal(b1-3)GalNAc
# Summary of the method: as §1
# [4] = molecular target: GlcNAc(b1-2)Man(a1-3)[GlcNAc(b1-2)Man(a1-6)]Man(b1-4)GlcNAc(b1-4)GlcNAc
# Summary of the method: as §1
# GlcNAc(b1-3)Gal = molecular target: GlcNAc(b1-3)Gal
# Summary of the method: as §1
# [5] = molecular target: GlcNAc(b1-3)Gal(b1-3)GalNAc
# Summary of the method: as §1
# GlcNAc(b1-3)Gal(b1-4)Glc = molecular target: GlcNAc(b1-3)Gal(b1-4)Glc
# Summary of the method: as §1
# [6] = molecular target: GlcNAc(b1-3)Gal(b1-4)GlcNAc
# Summary of the method: as §1
# [7] = molecular target: GlcNAc(b1-3)Gal(b1-4)GlcNAc(b1-3)Gal(b1-4)GlcNAc
# Summary of the method: as §1
# GlcNAc(b1-3)GalNAc = molecular target: GlcNAc(b1-3)GalNAc
# Summary of the method: as §1
# [8] = molecular target: GlcNAc(b1-3)[GlcNAc(b1-6)]Gal(b1-4)GlcNAc
# Summary of the method: as §1
# [9] = molecular target: GlcNAc(b1-3)[GlcNAc(b1-6)]GalNAc
# Summary of the method: as §1
# [10] = molecular target: GlcNAc(b1-3)[GlcNAc(b1-6)]GlcNAc(b1-4)GlcNAc
# Summary of the method: as §1
# [11] = molecular target: GlcNAc(b1-4)Gal(b1-4)GlcNAc
# Summary of the method: as §1
# [12] = molecular target: GlcNAc(b1-4)GlcNAc(b1-4)GlcNAc
# Summary of the method: as §1
# [13] = molecular target: GlcNAc(b1-4)GlcNAc(b1-4)GlcNAc(b1-4)GlcNAc(b1-4)GlcNAc
# Summary of the method: as §1
# [14] = molecular target: GlcNAc(b1-4)GlcNAc(b1-4)GlcNAc(b1-4)GlcNAc(b1-4)GlcNAc(b1-4)GlcNAc
# Summary of the method: as §1
# [15] = molecular target: GlcNAc(b1-4)[GlcNAc(b1-6)]GalNAc
# Summary of the method: as §1
# [16] = molecular target: GlcNAc(b1-6)Gal(b1-4)GlcNAc
# Summary of the method: as §1
# GlcNAc(b1-6)GalNAc = molecular target: GlcNAc(b1-6)GalNAc
# Summary of the method: as §1
# Kdn(a2-3)Gal(b1-3)GlcNAc = molecular target: Kdn(a2-3)Gal(b1-3)GlcNAc
# Summary of the method: as §1
# Kdn(a2-3)Gal(b1-4)GlcNAc = molecular target: Kdn(a2-3)Gal(b1-4)GlcNAc
# Summary of the method: as §1
# [17] = molecular target: Man(a1-2)Man(a1-2)Man(a1-3)Man
# Summary of the method: as §1
# [18] = molecular target: Man(a1-2)Man(a1-2)Man(a1-6)[Man(a1-3)]Man
# Summary of the method: as §1
# Man(a1-2)Man(a1-3)Man = molecular target: Man(a1-2)Man(a1-3)Man
# Summary of the method: as §1
# [19] = molecular target: Man(a1-2)Man(a1-3)[Man(a1-2)Man(a1-6)]Man
# Summary of the method: as §1
# [20] = molecular target: Man(a1-2)Man(a1-3)[Man(a1-2)Man(a1-6)]Man(a1-6)[Man(a1-2)Man(a1-2)Man(a1-3)]Man(b1-4)GlcNAc(b1-4)GlcNAc
# Summary of the method: as §1
# [21] = molecular target: Man(a1-2)Man(a1-3)[Man(a1-6)]Man(a1-6)[Man(a1-2)Man(a1-3)]Man(b1-4)GlcNAc(b1-4)GlcNAc
# Summary of the method: as §1
# [22] = molecular target: Man(a1-2)Man(a1-6)[Man(a1-3)]Man(a1-6)[Man(a1-2)Man(a1-2)Man(a1-3)]Man(b1-4)GlcNAc(b1-4)GlcNAc
# Summary of the method: as §1
# Man(a1-3)[Man(a1-6)]Man = molecular target: Man(a1-3)[Man(a1-6)]Man
# Summary of the method: as §1
# [23] = molecular target: Man(a1-3)[Man(a1-6)]Man(a1-6)[Man(a1-2)Man(a1-3)]Man(b1-4)GlcNAc(b1-4)GlcNAc
# Summary of the method: as §1
# [24] = molecular target: Man(a1-3)[Man(a1-6)]Man(a1-6)[Man(a1-3)]Man(b1-4)GlcNAc(b1-4)GlcNAc
# Summary of the method: as §1
# [25] = molecular target: Man(a1-3)[Man(a1-6)]Man(b1-4)GlcNAc(b1-4)GlcNAc
# Summary of the method: as §1
# Man(b1-4)GlcNAc = molecular target: Man(b1-4)GlcNAc
# Summary of the method: as §1
# Neu5Ac(a2-3)Gal = molecular target: Neu5Ac(a2-3)Gal
# Summary of the method: as §1
# [26] = molecular target: Neu5Ac(a2-3)Gal(b1-3)GalNAc
# Summary of the method: as §1
# [27] = molecular target: Neu5Ac(a2-3)Gal(b1-3)GalNAc(b1-3)Gal(a1-4)Gal(b1-4)Glc
# Summary of the method: as §1
binder,measurement,setting,value
B1,glycan array binding signal (z-score),[1],0.193
same,glycan array binding signal (z-score),[2],0.424
same,glycan array binding signal (z-score),[3],0.128
same,glycan array binding signal (z-score),[4],0.323
same,glycan array binding signal (z-score),GlcNAc(b1-3)Gal,0.318
same,glycan array binding signal (z-score),[5],-0.008
same,glycan array binding signal (z-score),GlcNAc(b1-3)Gal(b1-4)Glc,0.036
same,glycan array binding signal (z-score),[6],-0.37
same,glycan array binding signal (z-score),[7],-0.334
same,glycan array binding signal (z-score),GlcNAc(b1-3)GalNAc,0.305
same,glycan array binding signal (z-score),[8],0.15
same,glycan array binding signal (z-score),[9],0.839
same,glycan array binding signal (z-score),[10],0.92
same,glycan array binding signal (z-score),[11],0.137
same,glycan array binding signal (z-score),[12],0.132
same,glycan array binding signal (z-score),[13],0.153
same,glycan array binding signal (z-score),[14],0.04
same,glycan array binding signal (z-score),[15],0.249
same,glycan array binding signal (z-score),[16],0.324
same,glycan array binding signal (z-score),GlcNAc(b1-6)GalNAc,0.537
same,glycan array binding signal (z-score),Kdn(a2-3)Gal(b1-3)GlcNAc,-0.305
same,glycan array binding signal (z-score),Kdn(a2-3)Gal(b1-4)GlcNAc,-0.278
same,glycan array binding signal (z-score),[17],0.394
same,glycan array binding signal (z-score),[18],1.91
same,glycan array binding signal (z-score),Man(a1-2)Man(a1-3)Man,-0.083
same,glycan array binding signal (z-score),[19],1.34
same,glycan array binding signal (z-score),[20],0.723
same,glycan array binding signal (z-score),[21],1.02
same,glycan array binding signal (z-score),[22],1.2
same,glycan array binding signal (z-score),Man(a1-3)[Man(a1-6)]Man,-0.091
same,glycan array binding signal (z-score),[23],0.241
same,glycan array binding signal (z-score),[24],-0.255
same,glycan array binding signal (z-score),[25],-0.304
same,glycan array binding signal (z-score),Man(b1-4)GlcNAc,-0.276
same,glycan array binding signal (z-score),Neu5Ac(a2-3)Gal,-0.477
same,glycan array binding signal (z-score),[26],-0.435
same,glycan array binding signal (z-score),[27],-0.363
